This note sets out measurements from the RNAGym collection of RNA variant scans (doi:10.7554/elife.90254).

The source gives no read counts; variants with many changes may rest on few reads.

Sequences and labels used below:
B1: LINE1-mini (parent)
chain: GGCAGAGCUCAACACAGCGUGGCAAAGUGGCUGUGGCUAGACUGCC

In this series the parent is B1. The experiment in a line: self-cleavage, relative activity (ratio to wild type); higher = more cleavage; in vitro, sequencing; the parent is a self-cleaving ribozyme.
For C23U G40C C46A, the self-cleavage was 0.01.

In the case of G19C C23A U38A, the self-cleavage is 0.1.

For the variant A4G U28G G35C G36U, the self-cleavage is 0.1.

In the case of C13U G17U C37U, the self-cleavage was 0.03.

On to G5U A25C C45U C46A, for which the self-cleavage stood at 0.04.

Consider U9C C18G G29A, for which the self-cleavage was 0.02.

For the variant G17C G29C C31U G35A, the self-cleavage amounted to 0.06.

Turning to A12U C13A G21A G33C U34A, the self-cleavage stood at 0.09.

Consider G5U C10U C18G, for which the self-cleavage was found to be 0.04.

In the case of G2C C18G C23A A25U U28C U43A G44A, the self-cleavage is 0.24.

In the case of C3U G5C C8U G21A C45A, the self-cleavage is 0.04.

On to A11U A14C G27U C31U G33C C37G, for which the self-cleavage turned out to be 0.

Regarding C3G A25G G40C, the self-cleavage was determined as 0.05.

Consider A11C U20A U32G G33U C46A, for which the self-cleavage worked out at 0.02.

On to A12U G35A G44U, for which the self-cleavage is 0.03.

With G7A C13A C23U A25G G29U, the self-cleavage came to 0.04.

On to G5A A11C G17C, for which the self-cleavage turned out to be 0.01.

As to U34G A39U A41U, the self-cleavage was determined as 0.04.

On to G1A G5A A24U C31G C42U, for which the self-cleavage came to 0.04.

G5A C13A G27U: the self-cleavage is 0.13.

With A4U G5U A39U G40C G44A, the self-cleavage came out at 0.1.

On to G5C G17A A25C G36A, for which the self-cleavage is 0.

With G7U G33C G35A, the self-cleavage turned out to be 0.19.

Regarding C3U A26C U28C A39G C42A, the self-cleavage stood at 0.01.

Turning to A11U A16U C37A G40U C45U, the self-cleavage was 0.

For the variant A6G G7U A12C G19U G44C, the self-cleavage worked out at 0.02.

Regarding G7A A12G G21A, the self-cleavage came out at 0.04.

As to C10A G21U G33C, the self-cleavage came out at 0.02.

On to C8A G17A C46A, for which the self-cleavage was determined as 0.28.

On to A16G C23U G27U G29U U43C, for which the self-cleavage worked out at 0.04.

Take U9G C15A G19A A25U: the self-cleavage amounted to 0.26.

Take A6G C31U C46U: the self-cleavage is 0.01.

As to U28G G33C U38G A41G C42U, the self-cleavage was 0.01.

For the variant G21A U28G G30C U43G G44C, the self-cleavage came to 0.26.

Consider A12C G21U G30C G35U, for which the self-cleavage turned out to be 0.01.

In the case of C10U U38A C46U, the self-cleavage was 0.03.

In the case of C8A A11C G19C U20A, the self-cleavage turned out to be 0.01.

Take U9A A16U U32G U43C: the self-cleavage is 0.04.

Turning to C10A G35C G40A U43A, the self-cleavage turned out to be 0.01.

For C23U C31U G44C, the self-cleavage came to 0.04.

Consider U20G G30U C37G G40C, for which the self-cleavage worked out at 0.03.

Take C15A A16G A25U C37A C42A: the self-cleavage came to 0.07.

Regarding G19C G22A A39G, the self-cleavage was determined as 0.05.

On to G1U A41U C45U, for which the self-cleavage stood at 0.12.

As for U9G G27U A41U, the self-cleavage came to 0.06.

Consider C8G C15A A25G G33C, for which the self-cleavage was found to be 0.04.

Take A4U A6U C13G: the self-cleavage amounted to 0.03.

On to C3U G35C G36A G44U, for which the self-cleavage was 0.11.

Regarding G17C C23G C46U, the self-cleavage is 0.56.

For the variant C13U A41G U43A C46U, the self-cleavage came out at 0.02.

Turning to G17C C23A C31U G33A G40C C46U, the self-cleavage is 0.01.

Take U9A G19C U20A: the self-cleavage stood at 0.05.

As to A4U A11G G19A G21U U28A, the self-cleavage is 0.01.

A6G G29C G30U C46G: the self-cleavage worked out at 0.03.

With G7A C8G G17U A24G, the self-cleavage came out at 0.02.

As for G27U G29A G44C, the self-cleavage stood at 0.45.

As to C10G C23U A25U G30A C45U, the self-cleavage turned out to be 0.02.

Take A6C U34G C46A: the self-cleavage was 0.05.

On to G1U C3G A12G, for which the self-cleavage stood at 0.06.

For G2A U20A G29A A39U G40U, the self-cleavage turned out to be 0.13.

On to A11G G17U G30U U43C, for which the self-cleavage came out at 0.01.

In the case of G1C C8U A26U, the self-cleavage came out at 0.

With C13U G22C G40A C45A, the self-cleavage worked out at 0.05.

With C3U G22U C37G A41C, the self-cleavage came to 0.02.

Take A4C G27A G36A: the self-cleavage turned out to be 1.28.

For A26C G29A U38G, the self-cleavage came to 0.03.

On to G2A G40U U43G G44U, for which the self-cleavage is 0.12.

Consider G5U C8U U32C, for which the self-cleavage turned out to be 0.11.

With C18G G21A U28A, the self-cleavage came out at 0.15.

For A11G G17A G21U C31A, the self-cleavage was found to be 0.01.

Consider U9G C31A G44A, for which the self-cleavage worked out at 0.04.

In the case of C23G G40U C42G G44A C46U, the self-cleavage was 0.04.

As for A6C G29C C42A, the self-cleavage was found to be 0.05.

Turning to G2U G5A G36C, the self-cleavage came to 0.05.

As for G5U C10U G19U A26G G33A C46U, the self-cleavage was 0.05.

G17C C31A G36U: the self-cleavage was 0.02.

G1C C8U A16G G22C: the self-cleavage came to 0.01.

As for G5C G19C G33C, the self-cleavage stood at 0.08.

With A4G C15U G44C C45G, the self-cleavage was 0.04.

On to G22C G30U G35U A41C, for which the self-cleavage turned out to be 0.12.

For A6C C10G G17U G19A U34G C42A G44A, the self-cleavage was determined as 0.

Consider C3U G5U A6U C42G, for which the self-cleavage amounted to 0.08.

For the variant G2U C15U G17U A41G, the self-cleavage worked out at 0.05.

As for G1A U20C C23A, the self-cleavage is 0.12.

As to A14C U32A U38C, the self-cleavage was 0.05.

With A14U C15U G17C, the self-cleavage was found to be 0.12.

In the case of A12G A25G A39G, the self-cleavage is 0.01.

With G7U C23A U32G U34A U38A, the self-cleavage worked out at 0.15.

For the variant G29U A39G G44C, the self-cleavage was 0.17.

As for C8U C23A G27C, the self-cleavage is 0.19.

Turning to U28G U32C C46U, the self-cleavage came to 0.05.

On to C3A G35C A39U, for which the self-cleavage came to 0.16.

For C3G G29U G33U, the self-cleavage was determined as 0.08.

As for G1U G30U G36U C37A, the self-cleavage was determined as 0.02.

For G19A G33C G44C, the self-cleavage came to 0.06.

For the variant G22U G29C G44C, the self-cleavage is 0.07.

For the variant C23U U28C C45G, the self-cleavage stood at 0.61.

In the case of A14G G22U U32A, the self-cleavage was 0.07.

Consider G1A A16G A25G G30C, for which the self-cleavage stood at 0.02.

Consider A24C G35A A39G C42U G44C, for which the self-cleavage is 0.14.

Take C13A G21U C31U: the self-cleavage stood at 0.08.

C8U G22U C31G C45G: the self-cleavage was 0.14.

On to A16C A26C G30U, for which the self-cleavage worked out at 0.1.

Turning to A4G A24U U32C G36C A39G, the self-cleavage was determined as 0.06.

A26C G29A G33A: the self-cleavage came to 0.06.

On to C8G A16U C45U, for which the self-cleavage came out at 0.09.

In the case of U20C G22A A26G C37G A39C, the self-cleavage is 0.

For the variant A11U C23U A39G, the self-cleavage was found to be 0.07.

In the case of G5A C15A G40U, the self-cleavage came out at 0.03.

Consider C3G G30U U43A, for which the self-cleavage turned out to be 1.83.

Consider A14G C37A C45U, for which the self-cleavage was 0.05.

Take G5A G22A C23U U34G C45G: the self-cleavage came to 0.03.

As for C18U G19U G30A C37G, the self-cleavage amounted to 0.03.

Turning to G7C A24G G44U, the self-cleavage amounted to 0.05.

For C10A G17C G21A G22U, the self-cleavage is 0.03.

Regarding U9A A11G C18A A25G G33A G36A C37G, the self-cleavage turned out to be 0.

Take C10U C15U G30U C37A: the self-cleavage came out at 0.05.

For the variant C10U U28G U34G G40U C45A, the self-cleavage was 0.04.

Regarding U9G C37A G40U C42A C46A, the self-cleavage was 0.07.

Turning to G5A U20G U34C, the self-cleavage came out at 0.02.

As to G2C G21C G29C, the self-cleavage came to 0.11.

On to C13A U20G C23A G29C C31U, for which the self-cleavage stood at 0.03.

Take C10U A11U A26U G40A G44A: the self-cleavage worked out at 0.03.

For the variant C3G U32A G40U C45U, the self-cleavage was determined as 0.07.

As for C3U G19A G30U A41C, the self-cleavage turned out to be 0.09.

Regarding U28C G33U C37A U38G, the self-cleavage stood at 0.01.

As to C10U A11U A25U U34A C37U, the self-cleavage came out at 0.02.

Take C13A A16G G44U: the self-cleavage worked out at 0.02.

In the case of A4C C10G C13G G30A, the self-cleavage came out at 0.01.

Turning to C13U G35C G40U, the self-cleavage worked out at 1.26.

Consider C8G A26U U38A, for which the self-cleavage worked out at 0.04.

Consider U9C C15G A24G U28G, for which the self-cleavage turned out to be 0.02.

Regarding G5A C10A A39G A41G, the self-cleavage turned out to be 0.01.

G2C G22U G29C G30U: the self-cleavage turned out to be 0.04.

With A4C C18G G19U, the self-cleavage turned out to be 0.02.

Consider G7A A26U C37G, for which the self-cleavage was 0.01.

With A12U G30U U32A A39G A41G, the self-cleavage was determined as 0.01.

Take A11C G33A G36C G44U: the self-cleavage is 0.

For C3U A6G C18G G40U G44U C46U, the self-cleavage worked out at 0.02.

For A4U A11C C13G U32G, the self-cleavage is 0.

C23G G35C G36C C45A C46U: the self-cleavage is 0.01.

For C8U G22A G33U G44U, the self-cleavage was 0.1.

Take A14U A24G U28A: the self-cleavage came to 0.05.

For the variant C10G C18U G22U U32C, the self-cleavage came to 0.04.

As for C3G G21A C37A G40U, the self-cleavage was 0.33.

In the case of U9A A16G G27U, the self-cleavage came to 0.04.

On to C10G A26U A39U, for which the self-cleavage stood at 0.33.

As for G7A A11G A25U U38C, the self-cleavage turned out to be 0.03.

For the variant C10U C15A C23U U34G, the self-cleavage was 0.08.

For the variant U9A G17A A24C G27A U32G, the self-cleavage came out at 0.05.

Regarding G7A A24C C42G, the self-cleavage worked out at 0.

For G5A A12C C18U G29U G35A, the self-cleavage is 0.03.

For the variant A14U G21U G22A C37U G44A, the self-cleavage is 0.06.

Regarding G1A A11U C13A G29U C31A A39U G44U, the self-cleavage turned out to be 0.01.

Regarding G7C A11C C31G G44U, the self-cleavage was 0.03.

G36A C37G G40C: the self-cleavage stood at 0.06.

As to C3G A16C C18G, the self-cleavage stood at 0.1.

With A6C C8U A25G A39U, the self-cleavage turned out to be 0.17.

Turning to A4C U9C A11C A12C G29U, the self-cleavage is 0.01.

A6G G21U C31U G36U: the self-cleavage came to 0.02.

With C10A G21U A39G, the self-cleavage was 0.01.

Consider G5A C8A A24U, for which the self-cleavage came out at 0.09.

Take G22U G27C A41C: the self-cleavage stood at 0.07.

In the case of C10U G29A C31G G33C, the self-cleavage stood at 0.04.

For the variant A11C C23U C42A, the self-cleavage was found to be 0.01.

Regarding A6U C23G U32G, the self-cleavage came to 0.07.

Regarding A26U G29U C31U A39G, the self-cleavage stood at 0.1.
